Measurements as given in paper PMC3639976.
Results are given in words; binding and its absence hold for the method and conditions named. In cells and extracts the contact can be indirect. Some results given as binding are weak or reduced against the parent protein; the word gives no strength. For some of these results: Tags and fused reporters may be left off the sequences shown. Values belong to the substance of their own block, whether it stands above or below them.

Protein sequences, listed by entry. Tags and fused reporters are not part of them. Lines headed by an entry give the natural chain unless they say otherwise; changes in a name come on top.
UniProt P04792: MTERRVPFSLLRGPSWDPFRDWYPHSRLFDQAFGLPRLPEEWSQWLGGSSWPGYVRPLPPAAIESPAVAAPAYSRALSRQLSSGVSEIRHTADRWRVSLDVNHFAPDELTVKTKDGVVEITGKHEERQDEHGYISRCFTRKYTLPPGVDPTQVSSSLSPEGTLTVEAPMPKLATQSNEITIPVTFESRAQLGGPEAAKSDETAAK
UniProt P35396: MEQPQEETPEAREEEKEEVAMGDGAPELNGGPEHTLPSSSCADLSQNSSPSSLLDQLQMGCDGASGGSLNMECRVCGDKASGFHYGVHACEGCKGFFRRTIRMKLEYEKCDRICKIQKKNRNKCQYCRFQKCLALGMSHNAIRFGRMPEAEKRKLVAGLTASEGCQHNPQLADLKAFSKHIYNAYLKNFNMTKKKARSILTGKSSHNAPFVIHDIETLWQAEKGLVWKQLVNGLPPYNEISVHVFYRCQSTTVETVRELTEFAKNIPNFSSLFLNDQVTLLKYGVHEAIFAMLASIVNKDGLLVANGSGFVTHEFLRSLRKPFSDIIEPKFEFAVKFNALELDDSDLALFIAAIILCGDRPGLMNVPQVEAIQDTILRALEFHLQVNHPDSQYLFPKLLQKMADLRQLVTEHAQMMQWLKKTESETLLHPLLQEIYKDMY
UniProt Q03181: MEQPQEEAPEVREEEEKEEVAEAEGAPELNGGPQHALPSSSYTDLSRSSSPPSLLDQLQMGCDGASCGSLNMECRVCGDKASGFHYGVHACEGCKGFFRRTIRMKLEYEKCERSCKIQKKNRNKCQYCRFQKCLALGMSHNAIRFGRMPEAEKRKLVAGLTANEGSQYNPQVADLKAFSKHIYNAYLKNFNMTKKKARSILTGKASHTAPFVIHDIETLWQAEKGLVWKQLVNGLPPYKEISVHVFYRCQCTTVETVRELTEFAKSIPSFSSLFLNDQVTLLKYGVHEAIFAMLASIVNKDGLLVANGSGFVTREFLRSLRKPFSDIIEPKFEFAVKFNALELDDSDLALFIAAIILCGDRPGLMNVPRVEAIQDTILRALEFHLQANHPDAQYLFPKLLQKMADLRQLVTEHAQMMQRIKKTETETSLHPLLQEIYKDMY
UniProt Q04206: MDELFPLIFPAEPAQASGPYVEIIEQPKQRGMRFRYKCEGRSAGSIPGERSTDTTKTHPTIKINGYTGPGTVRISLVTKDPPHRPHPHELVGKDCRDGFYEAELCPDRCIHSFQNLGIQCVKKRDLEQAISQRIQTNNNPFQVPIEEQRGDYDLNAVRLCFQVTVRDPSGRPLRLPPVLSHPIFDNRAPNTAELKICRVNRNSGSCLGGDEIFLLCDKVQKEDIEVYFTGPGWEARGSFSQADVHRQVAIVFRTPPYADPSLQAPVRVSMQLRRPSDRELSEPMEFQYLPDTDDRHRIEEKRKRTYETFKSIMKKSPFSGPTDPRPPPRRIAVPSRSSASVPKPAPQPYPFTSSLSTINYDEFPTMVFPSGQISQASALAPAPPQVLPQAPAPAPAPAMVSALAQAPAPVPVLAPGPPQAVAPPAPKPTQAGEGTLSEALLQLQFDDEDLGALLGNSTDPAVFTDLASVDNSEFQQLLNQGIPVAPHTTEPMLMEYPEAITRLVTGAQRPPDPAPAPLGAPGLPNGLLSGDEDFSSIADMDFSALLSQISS

Assays:
GFP-TAB1 = molecular target: T1, GFP-TAB1 (UniProt Q15750); experiment: co-IP; HEK293IL-1R cells transfected, GFP-TAK1 or GFP-TAB1 alone (no co-expressed MYC-TAB1); pulldown with GFP-Trap_A agarose beads, 2 h at 4°C, washes with lysis buffer (0,5 M NaCl); immunoblotting
T1 sequence: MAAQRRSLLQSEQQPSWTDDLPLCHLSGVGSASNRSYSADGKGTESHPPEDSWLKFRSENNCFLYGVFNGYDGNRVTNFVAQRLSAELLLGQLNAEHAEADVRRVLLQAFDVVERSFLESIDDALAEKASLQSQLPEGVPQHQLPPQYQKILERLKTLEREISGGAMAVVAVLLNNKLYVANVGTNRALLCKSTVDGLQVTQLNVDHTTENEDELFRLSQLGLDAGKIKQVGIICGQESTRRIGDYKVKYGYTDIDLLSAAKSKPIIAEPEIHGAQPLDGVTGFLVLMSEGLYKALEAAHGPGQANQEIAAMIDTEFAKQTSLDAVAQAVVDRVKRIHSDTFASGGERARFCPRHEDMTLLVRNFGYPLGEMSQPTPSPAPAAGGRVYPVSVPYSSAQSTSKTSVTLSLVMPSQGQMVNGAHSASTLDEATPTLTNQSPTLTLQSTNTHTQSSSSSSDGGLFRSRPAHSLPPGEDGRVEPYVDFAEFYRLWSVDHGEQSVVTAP

GFP-TAK1 1–362 = molecular target: T2, GFP-TAK1 1–362 (UniProt O43318); experiment: co-IP; GFP-TAK1 deletion mutants with FLAG-PPARβ/δ; 'experimental details were as in Figure 6A' (HEK293IL-1R, pulldown with an antibody against GFP); whether MYC-TAB1 was co-expressed is not told
T2 sequence: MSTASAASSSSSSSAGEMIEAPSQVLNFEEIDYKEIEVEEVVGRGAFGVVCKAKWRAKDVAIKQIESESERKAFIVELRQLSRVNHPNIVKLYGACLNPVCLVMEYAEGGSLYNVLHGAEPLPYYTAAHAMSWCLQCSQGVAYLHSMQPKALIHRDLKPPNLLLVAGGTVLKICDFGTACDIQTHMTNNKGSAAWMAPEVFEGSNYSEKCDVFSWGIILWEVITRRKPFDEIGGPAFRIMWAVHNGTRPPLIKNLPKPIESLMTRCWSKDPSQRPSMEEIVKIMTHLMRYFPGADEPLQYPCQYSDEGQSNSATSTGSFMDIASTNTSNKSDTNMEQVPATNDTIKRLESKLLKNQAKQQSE

GFP-TAK1 1–493 = molecular target: T3, GFP-TAK1 1–493 (UniProt O43318); experiment: as above
T3 sequence: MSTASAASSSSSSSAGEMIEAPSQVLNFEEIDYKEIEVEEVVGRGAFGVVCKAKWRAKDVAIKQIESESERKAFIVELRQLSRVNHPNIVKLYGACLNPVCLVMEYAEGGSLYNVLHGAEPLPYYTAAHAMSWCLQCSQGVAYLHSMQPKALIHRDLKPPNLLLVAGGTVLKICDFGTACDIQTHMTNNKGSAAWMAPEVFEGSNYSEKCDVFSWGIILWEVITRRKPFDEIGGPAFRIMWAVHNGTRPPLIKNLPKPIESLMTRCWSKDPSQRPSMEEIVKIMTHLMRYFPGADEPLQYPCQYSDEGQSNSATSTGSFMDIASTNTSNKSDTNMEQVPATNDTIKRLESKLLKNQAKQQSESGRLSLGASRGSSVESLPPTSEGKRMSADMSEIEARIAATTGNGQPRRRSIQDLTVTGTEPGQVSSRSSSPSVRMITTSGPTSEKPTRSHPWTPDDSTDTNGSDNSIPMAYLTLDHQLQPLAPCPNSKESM

GFP-TAK1 1–296 = molecular target: T4, GFP-TAK1 1–296 (UniProt O43318); experiment: as above
T4 sequence: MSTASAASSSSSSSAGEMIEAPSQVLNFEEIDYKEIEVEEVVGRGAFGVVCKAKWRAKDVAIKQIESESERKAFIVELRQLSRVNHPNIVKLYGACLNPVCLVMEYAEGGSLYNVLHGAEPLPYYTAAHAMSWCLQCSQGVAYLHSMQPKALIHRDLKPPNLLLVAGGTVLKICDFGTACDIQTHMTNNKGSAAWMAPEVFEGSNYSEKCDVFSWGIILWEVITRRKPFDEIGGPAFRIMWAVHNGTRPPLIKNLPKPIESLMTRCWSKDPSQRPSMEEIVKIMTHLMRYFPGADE

GFP-TAK1 1–579 (wt) = molecular target: T5, GFP-TAK1 1–579 (wt) (UniProt O43318); experiment: as above
T5 sequence: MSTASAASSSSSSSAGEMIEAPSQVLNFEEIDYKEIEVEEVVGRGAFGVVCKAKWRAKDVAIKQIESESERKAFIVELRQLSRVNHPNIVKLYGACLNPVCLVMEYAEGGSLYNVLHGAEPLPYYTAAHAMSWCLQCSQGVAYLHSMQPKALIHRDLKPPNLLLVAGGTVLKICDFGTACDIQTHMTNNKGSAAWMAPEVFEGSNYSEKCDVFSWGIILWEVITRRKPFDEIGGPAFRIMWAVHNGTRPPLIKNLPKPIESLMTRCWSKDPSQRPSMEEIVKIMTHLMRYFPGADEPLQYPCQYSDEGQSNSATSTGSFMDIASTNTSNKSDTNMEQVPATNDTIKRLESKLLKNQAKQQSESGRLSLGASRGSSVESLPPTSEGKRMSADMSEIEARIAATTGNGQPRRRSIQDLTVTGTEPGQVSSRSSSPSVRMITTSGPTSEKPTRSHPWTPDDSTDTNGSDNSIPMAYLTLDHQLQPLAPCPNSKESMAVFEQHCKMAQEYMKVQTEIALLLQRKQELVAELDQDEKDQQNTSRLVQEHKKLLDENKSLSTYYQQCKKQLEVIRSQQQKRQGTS

[1] = molecular target: T6, endogenous TAB1 (human (endogenous in HEK293T)) (UniProt Q15750); experiment: co-IP; untransfected HEK293T cells treated with formaldehyde to stabilize protein interactions (ChIP protocol); immunoprecipitation with antibodies against HSP27, TAK1 or TAB1; immunoblotting with PPARβ/δ-specific antibodies
T6 sequence: T1 sequence

[2] = molecular target: endogenous HSP27 (human (endogenous in HEK293T)) (UniProt P04792); experiment: as above
[3] = molecular target: T7, endogenous TAK1 (human (endogenous in HEK293T)) (UniProt O43318); experiment: as above
T7 sequence: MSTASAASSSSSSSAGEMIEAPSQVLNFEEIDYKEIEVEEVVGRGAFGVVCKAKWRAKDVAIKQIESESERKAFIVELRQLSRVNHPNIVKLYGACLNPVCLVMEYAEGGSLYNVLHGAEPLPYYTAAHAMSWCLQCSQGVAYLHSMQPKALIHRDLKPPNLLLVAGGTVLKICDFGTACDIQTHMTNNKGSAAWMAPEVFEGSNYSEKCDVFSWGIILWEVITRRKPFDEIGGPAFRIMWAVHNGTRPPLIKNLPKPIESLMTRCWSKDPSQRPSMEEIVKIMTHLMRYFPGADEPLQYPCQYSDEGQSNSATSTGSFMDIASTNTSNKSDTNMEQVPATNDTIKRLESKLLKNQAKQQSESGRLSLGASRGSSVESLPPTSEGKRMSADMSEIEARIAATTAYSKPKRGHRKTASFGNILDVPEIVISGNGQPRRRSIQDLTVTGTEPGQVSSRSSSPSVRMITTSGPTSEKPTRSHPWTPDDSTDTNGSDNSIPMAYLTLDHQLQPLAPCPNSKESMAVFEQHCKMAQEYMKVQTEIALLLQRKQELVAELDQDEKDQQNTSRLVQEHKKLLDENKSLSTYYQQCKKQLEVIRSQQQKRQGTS

3xFLAG-PPARβ/δ (mouse) [4] = molecular target: 3xFLAG-PPARβ/δ (mouse) (UniProt P35396); experiment: co-IP; HEK293T cells transfected, fractionated; cytoplasmic fraction; pulldown with an antibody against FLAG; immunoblotting
3xFLAG-PPARβ/δ (mouse) [5] = molecular target: 3xFLAG-PPARβ/δ (mouse) (UniProt P35396); experiment: co-IP; HEK293T cells transfected, fractionated; nuclear fraction; pulldown with an antibody against FLAG; immunoblotting with anti-HA antibodies
3xFLAG-PPARβ/δ (mouse) [6] = molecular target: 3xFLAG-PPARβ/δ (mouse) (UniProt P35396); experiment: co-IP; HEK293IL-1R cells transfected; pulldown with FLAG antibodies on Protein G Sepharose, 2 h at 4°C, washes with lysis buffer (0,5 M NaCl); immunoblotting

- binding (GFP-TAB1): binds
- binding (GFP-TAK1 1–362): binds
- binding (GFP-TAK1 1–493): binds
- binding (GFP-TAK1 1–296): binds
- binding (GFP-TAK1 1–579 (wt)): binds
Substance: 3xFLAG-PPARβ/δ (from UniProt P35396 1-440)

- binding (GFP-TAB1): no binding
Substance: FLAG-PPARβ/δ 4–152 (from UniProt P35396 4-152) (domain or fragment)

- binding [1]: binds
- binding [2]: binds
- binding [3]: binds
Substance: endogenous PPARβ/δ (from UniProt Q03181 1-441)

- binding (3xFLAG-PPARβ/δ (mouse) [4]): binds
- binding (3xFLAG-PPARβ/δ (mouse) [5]): no binding (condition: nuclear fraction)
Substance: HA-tagged HSP27 (from UniProt P04792 1-205)

- binding (3xFLAG-PPARβ/δ (mouse) [6]): binds
Substance: HA-tagged p65 (from UniProt Q04206 1-551)

- binding (GFP-TAB1): no binding
Substance: 3xFLAG-PPARβ/δ 4-165 (from UniProt P35396 4-165) (domain or fragment)
